Experimental findings from the antibiotic and cytotoxicity screens of Wong et al. (2023) are described below.

The other results are listed elsewhere or left out.

One assay relates to HSkMC. As to the kind of experiment: cytotoxicity call (relative viability < 0.9). The note with it: 10 µM.
The test system of the next assay is HepG2. As to the kind of experiment: cytotoxicity call (relative viability < 0.9). To be noted: 10 µM.
In another assay the test system is S. aureus RN4220. The assay can be described thus: growth inhibition call (relative growth <= 0.2). To be noted: 50 µM.

Consider `N=C(N)S/C=C\C(=O)O`, for which the cytotoxicity call in the assay with HSkMC and in the assay with HepG2 was “inactive” each time. Moreover, the growth inhibition call with S. aureus RN4220 is “inactive”.

`CC(C)c1ccc(N2C=Nc3ccc(C(C)C)cc3C2)cc1`: the cytotoxicity call in the assay on HSkMC and in the assay on HepG2 was “inactive” throughout. In addition, the growth inhibition call in the assay with S. aureus RN4220 is “active”.

On to `COc1nn(C)cc1C(=O)N1CCN(C)CC1`, for which the cytotoxicity call in the assay on HSkMC and in the assay with HepG2 was “inactive” each time. Further, in the assay with S. aureus RN4220, the growth inhibition call is “inactive”.

As for `CC(=O)N1Cc2cc(C(=O)NCc3cc(F)cc(F)c3)nc(-c3cccc(C4=CCCC4)c3)c2[C@@H]1CCO`, the cytotoxicity call in the assay on HSkMC and in the assay on HepG2 was “inactive” in each case. Moreover, the growth inhibition call with S. aureus RN4220 is “inactive”.

For `COc1ccc(CCC(=O)c2c(O)cc(O[C@@H]3O[C@H](CO)[C@@H](O)[C@H](O)[C@H]3O[C@@H]3O[C@@H](C)[C@H](O)[C@@H](O)[C@H]3O)cc2O)cc1O`, the cytotoxicity call in the assay on HSkMC and in the assay on HepG2 was “inactive” in each case. Further, in the assay with S. aureus RN4220, the growth inhibition call is “inactive”.

For the compound `COc1ccc2c(c1)[C@]1(C[C@H]1c1ccc3c(/C=C/c4ccc(CN5C[C@@H](C)O[C@@H](C)C5)cc4)[nH]nc3c1)C(=O)N2`, the cytotoxicity call in the assay on HSkMC and in the assay with HepG2 was “inactive” each time. The growth inhibition call with S. aureus RN4220 is “inactive”.

On to `C[C@H]1CN([C@@H](C)CO)C(=O)c2cc(C#Cc3ccccc3)cnc2O[C@H]1CN(C)C(=O)CCN1CCCCC1`, for which, in the assay on HSkMC, the cytotoxicity call was “inactive”. For the same compound, the cytotoxicity call with HepG2 is “active”. The growth inhibition call in the assay with S. aureus RN4220 is “inactive”.

As for `C[C@H]1CCCCO[C@H](CN(C)C(=O)CCC(F)(F)F)[C@@H](C)CN([C@@H](C)CO)C(=O)c2cc(NS(=O)(=O)c3ccc(Cl)cc3)ccc2O1`, the cytotoxicity call in the assay on HSkMC and in the assay on HepG2 was “inactive” each time. The growth inhibition call in the assay on S. aureus RN4220 was “inactive”.

On to `C[C@H]1CN([C@@H](C)CO)C(=O)c2cc(C#CC3(O)CCCC3)cnc2O[C@H]1CN(C)C(=O)CN(C)C`, for which the cytotoxicity call in the assay with HSkMC and in the assay with HepG2 was “inactive” throughout. Besides, in the assay with S. aureus RN4220, the growth inhibition call is “inactive”.

With `O=C(C[C@H]1CC[C@H]2[C@@H](COC[C@H](O)CN2C(=O)c2ccncc2)O1)NCc1ccc(-c2ccccc2)cc1`, the cytotoxicity call with HSkMC and with HepG2 was “inactive” each time. Further, the growth inhibition call in the assay on S. aureus RN4220 is “inactive”.

For `CC(=C(CCOP(=O)(O)O)SC(=O)c1ccccc1)N(C=O)Cc1cnc(C)nc1N`, the cytotoxicity call in the assay on HSkMC and in the assay with HepG2 was “inactive” each time. The growth inhibition call with S. aureus RN4220 was “inactive”.

Regarding `COc1ccc(C(=O)Nc2cccc(CN3C(=O)[C@@]4(O[C@@H](CC(=O)N5CCC[C@H]5CO)[C@H]([Si](C)(C)c5ccc(OC)cc5)[C@H]4C)c4ccccc43)c2)cc1`, the cytotoxicity call in the assay on HSkMC (human skeletal muscle cells) and in the assay with HepG2 was “inactive” throughout. Further, the growth inhibition call in the assay with S. aureus RN4220 was “inactive”.

`Cc1ccc(S(=O)(=O)Nc2ccc3c(c2)C(=O)N([C@@H](C)CO)C[C@H](C)[C@@H](CN(C)C(=O)Nc2ccc(C(F)(F)F)cc2)OCCCC[C@H](C)O3)cc1`: the cytotoxicity call with HSkMC was “inactive”. Further, the cytotoxicity call with HepG2 is “active”. Moreover, the growth inhibition call in the assay with S. aureus RN4220 is “inactive”.

Consider `Cc1nnn2c1COC[C@H](CNCC(C)C)C2`, for which the cytotoxicity call in the assay with HSkMC and in the assay on HepG2 was “inactive” in each case. The growth inhibition call in the assay on S. aureus RN4220 is “inactive”.

Regarding `O=c1cc[nH]cc1`, the cytotoxicity call with HSkMC and in the assay with HepG2 was “inactive” each time. In addition, the growth inhibition call with S. aureus RN4220 is “inactive”.
